This note sets out measurements from ChEMBL document CHEMBL4888484, “Replenishing the malaria drug discovery pipeline: Screening and hit evaluation of the MMV Hit Generation Library 1 (HGL1) against asexual blood stage Plasmodium falciparum ,using a nano luciferase reporter read-out” (2022).

About 540 (0.36%) of roughly 150,000 compounds showed an effect of 50% or more. The list shows a part of the results.

The assay relates to Plasmodium falciparum. In words: Primary screen in NF54 nanoGlo assay, in single point, at 2uM, 72h; a lower Z score goes with more inhibition. It is filed as functional, Erythrocyte. The following applies: timepoint 72 hour.
Regarding `O=C(Cn1cc2ccccc2n1)N1CCC[C@H](N2CCN(c3ccccc3)CC2)C1`, the % Inhibition (in general, the relative decrease from the control value, in per cent) is -15% and the Z score was determined as 2.08.
In the same order, the values of `O=C(c1cn(Cc2cccc(Cl)c2)nn1)N1CCC[C@H](COc2cccc(F)c2)C1` are -12% and 1.52.
In the case of `CC(NC(=O)CC1CCCO1)c1ccc(-c2cccnc2)cc1` (configuration not stated), the “% Inhibition” value is on record as -2% and the Z score came out at 0.26.
In the same order, the values of `CCn1ccnc1CN1CCc2[nH]cnc2[C@H]1c1ccc(OC)c(F)c1F` are -3% and 0.28.
With `Cc1nc(N2CCC[C@H]2C2CCOCC2)cc2nncn12`, the “% Inhibition” value is -4% and the Z score came to 0.67.
On to `Cc1cc(C(=O)NCc2cc(-c3ccncc3)nn2C)c(C)o1`, for which the “% Inhibition” value is reported as 0% and the Z score was -0.02.
For `CC1CN(CCNCc2c[nH]nc2-c2cccs2)CC(C)O1` (configuration not stated), the “% Inhibition” value is reported as 0% and the Z score was determined as 0.02.
On to `Cc1ccc(-n2nc3c(=O)n(CCCC(=O)N4CCOCC4)nc(C)c3c2C)cc1`, for which the “% Inhibition” value is reported as 12% and the Z score is on record as -1.42.
In the same order, the values of `COc1ccccc1CNC(=O)c1nc[nH]c1C(=O)NCC1CC1` are 10% and -1.12.
In the same order, the values of `COc1ccc(C(=O)Nc2ccc(Br)c(C)n2)nn1` are -5% and 0.92.
As to `CCn1c(=O)sc2cc(S(=O)(=O)N3CCC(C(=O)Nc4ccc(Cl)cc4C)CC3)ccc21`, the “% Inhibition” value amounted to 0% and the Z score is on record as 0.06.
Taken in the same sequence, the figures for `COc1ccc(CNCCc2ccc(C)cc2)cc1OC[C@@H](O)CN1CCCCC1` were -10% and 0.87.
In the same order, the values of `O=C(c1ccsc1)N1CCN(C(=O)c2ccccc2Cl)CC1` are 0% and 0.01.
In the same order, the values of `Cc1nn(Cc2cc(F)ccc2OC(F)F)c(=O)s1` are -14% and 1.76.
Take `O=C(c1n[nH]c2c1CCC2)N1CCC[C@H]1c1nc2ccccc2s1`: the “% Inhibition” value came to 10% and the Z score is -1.43.
With `CC(=O)c1cc(C(=O)NCc2cccnc2N2CCN(C)CC2)c(=O)[nH]c1C`, the “% Inhibition” value is recorded as 4% and the Z score is reported as -0.52.
As to `CNC(=O)NC(=O)COc1c(Br)cccc1Br`, the “% Inhibition” value is -14% and the Z score came out at 2.45.
Taken in the same sequence, the figures for `CC(C)C(=O)Nc1ccc(N2CCN(Cc3ccccc3)C2=O)nc1` were -12% and 1.34.
In the same order, the values of `CCCN1C=NS(=O)(=O)c2cc(C(=O)Nc3cccc4ccccc34)ccc21` are -5% and 0.84.
In the same order, the values of `O=C(O)c1ccc(C(=O)N(Cc2ccccc2)CC2CCOCC2)c(F)c1` are 32% and -3.62.
Take `CCc1cccc(OC[C@@H](O)Cn2c(N3CCOCC3)nc3c2c(=O)[nH]c(=O)n3C)c1`: the “% Inhibition” value is recorded as -1% and the Z score stood at 0.1.
In the same order, the values of `CCc1ccc(Cn2nc(C3CCCC3)nc2-c2c[nH]c(=O)[nH]c2=O)cc1` are -10% and 1.88.
Take `COCn1nccc1S(=O)(=O)NCc1cc(C(F)(F)F)[nH]n1`: the “% Inhibition” value was -7% and the Z score is reported as 0.93.
Taken in the same sequence, the figures for `Cc1cccc(C)c1OCC(=O)c1ccc2c(c1)N(CC(=O)N1CCCCC1)C(=O)CO2` were -4% and 0.47.
Regarding `CC[C@H](C)n1nc(C(=O)N2CCN(c3ccc(F)cn3)CC2)cc1C`, the “% Inhibition” value is reported as -10% and the Z score is 1.39.
In the same order, the values of `CC(NC(=O)C1CC(=O)N(C)C1)c1cccc(-n2cccn2)c1` (configuration not stated) are 0% and 0.01.
Taken in the same sequence, the figures for `Cc1cc(F)cc(S(=O)(=O)N2CC(N(C)C)C2)c1` were -7% and 1.06.
Taken in the same sequence, the figures for `CC(C)N1CCC(N(C)S(=O)(=O)CC[C@H]2CCCO2)CC1` were 4% and -0.58.
`CNC(=O)c1ccc(OC)c(-c2ccc(NCCN3CCOCC3)nc2)c1`: the “% Inhibition” value is listed as -7% and the Z score stood at 1.05.
In the same order, the values of `COc1nccnc1N1C[C@H]2CC[C@@H](C1)N(CC=C(C)C)C2=O` are -11% and 2.11.
Consider `N#Cc1cccc(C(=O)Nc2cccc3[nH]cnc23)c1`, for which the “% Inhibition” value is -13% and the Z score is on record as 1.75.
For the compound `CC[C@H](NC(=O)N(C)Cc1ccsc1)c1ccc(S(C)(=O)=O)cc1`, the “% Inhibition” value worked out at 11% and the Z score is -1.33.
Regarding `Cc1csc(-c2nc3ccccc3[nH]c2=O)n1`, the “% Inhibition” value is -14% and the Z score came to 1.98.
Taken in the same sequence, the figures for `C[C@H]1CC(c2ccc(F)cc2)=Nc2ccccc2N1` were -1% and 0.07.
Taken in the same sequence, the figures for `Cc1noc(C)c1CCC(=O)Nc1ccc(N2CCCC2)c2ncccc12` were -13% and 1.23.
Taken in the same sequence, the figures for `O=C(C1CCOCC1)N1CCO[C@@H](Cc2ccccc2Cl)C1` were 4% and -0.69.
For the compound `CC1=C(C(=O)NCc2cccc(N3CCCC3)c2)[C@H](C)NC(=O)N1`, the “% Inhibition” value came out at 1% and the Z score is reported as -0.24.
Consider `Cc1n[nH]cc1CNc1cccc(CNC(=O)OC(C)(C)C)c1`, for which the “% Inhibition” value was -6% and the Z score stood at 0.91.
In the same order, the values of `CN(C)C1CCCC1Oc1ncnc2sccc12` (configuration not stated) are -9% and 1.16.
Taken in the same sequence, the figures for `Cc1ccc(NS(=O)(=O)c2cc(C(=O)N3CCC(Cc4ccccc4)CC3)ccc2Cl)c(C)c1` were -17% and 1.9.
Regarding `COc1ccc(C(=O)N2CC(C(=O)N3CCCCC3)C(c3cc(OC)c(OC)c(OC)c3)C2)cc1` (configuration not stated), the “% Inhibition” value was -12% and the Z score is listed as 2.14.
In the same order, the values of `Cc1ccsc1S(=O)(=O)N1CCC[C@H](CCO)CC1` are -4% and 0.68.
Taken in the same sequence, the figures for `COc1c(C)cc(-c2ccc3nc(-c4cccc(F)c4)oc3c2)cc1C` were -7% and 0.96.
Taken in the same sequence, the figures for `N#Cc1ccc(OC[C@@H](O)Cn2cc(CNC3CCCC3)nn2)cc1` were -17% and 2.02.
In the case of `COc1ccc(CN2CCNC(=O)[C@@H]2CC(=O)NCc2cc(C(C)(C)C)[nH]n2)c(C)c1C`, the “% Inhibition” value is -14% and the Z score is 2.14.
In the same order, the values of `CC1(C)CC(Cc2noc(C3(S(C)(=O)=O)CCCC3)n2)C1` are 0% and -0.08.
In the same order, the values of `CCc1csc(NCc2[nH]nc(C)c2C)n1` are -4% and 0.56.
Taken in the same sequence, the figures for `O=C(c1onc2c1CCCC2)N1CCO[C@@H](CO)C1` were -3% and 0.54.
As to `O=C(c1cc2ccccc2c(=O)[nH]1)N1CCC[C@H](C(F)(F)F)C1`, the “% Inhibition” value is -24% and the Z score was determined as 2.76.
Taken in the same sequence, the figures for `O=C1\N=C(c2ccc(Cl)cc2)/N=N\C(c2ccc(Cl)cc2)=N/[C@]1(O)C(F)(F)F` were 35% and -4.53.
In the same order, the values of `CC(C)(O)Cc1ccc(N)cc1-c1ccc2nonc2c1` are 8% and -0.95.
Taken in the same sequence, the figures for `O=C1CC(C2CCCO2)C(=O)N1c1ccccc1` (configuration not stated) were 2% and -0.23.
Regarding `CC(C)Oc1cccc(F)c1-c1cnc2nn[nH]c2c1`, the “% Inhibition” value is listed as 9% and the Z score is -1.2.
`CN(C(=O)N1CCC(c2c(F)cccc2F)CC1)[C@H]1CCS(=O)(=O)C1`: the “% Inhibition” value is given as -15% and the Z score is recorded as 1.3.
Taken in the same sequence, the figures for `Cc1cnc(CNC[C@H](O)c2ccccn2)nc1` were -9% and 1.09.
In the case of `CC(C)c1csc(CCNC(=O)N2CCCC[C@@H]2CN)n1`, the “% Inhibition” value is -4% and the Z score came to 0.79.
In the case of `O=C(c1ccco1)N1CC(C(=O)N2CCCC2)C(c2ccc(F)cc2)C1` (configuration not stated), the “% Inhibition” value is listed as -8% and the Z score was 0.92.
Taken in the same sequence, the figures for `CC(C)(C)c1cnc(CN[C@H](C(N)=O)C(C)(C)C)o1` were -9% and 0.79.
In the same order, the values of `COc1cc(-c2nc(Cn3cnc(C(C)=O)n3)c(C)o2)cc2c1OCO2` are -8% and 1.04.
On to `Cc1cc(C)n(-c2ccc(CN(C)[C@H]3CCS(=O)(=O)C3)cc2)n1`, for which the “% Inhibition” value is on record as 31% and the Z score is on record as -3.19.
In the same order, the values of `CCNc1cc(CNC(=O)Nc2c(C)nn(C)c2C)ccn1` are -11% and 2.12.
Taken in the same sequence, the figures for `Cc1nccn1-c1ncc(NC(=O)Nc2ccc3c(c2)OCO3)cn1` were 25% and -4.77.
In the same order, the values of `CC(C1Cc2ccccc2O1)N(C)Cc1nccn1S(=O)(=O)N(C)C` (configuration not stated) are 34% and -4.61.
For the compound `COc1cccc(NC(=O)C23CCCN2CCC3)c1`, the “% Inhibition” value is listed as -8% and the Z score is 1.16.
In the same order, the values of `COc1ccc(CONS(=O)(=O)c2ccc(NC(C)=O)cc2)cc1Cl` are -15% and 1.99.
In the same order, the values of `CCN(CC)c1ccc(C(=O)Nc2ccc3nc(N4CCCC4)cc(C)c3c2)cc1` are 73% and -6.69.
Taken in the same sequence, the figures for `Cc1ccccc1C(=O)N1CCCc2cnc(N3CCOCC3)nc21` were -2% and 0.21.
For the compound `CCn1cnnc1CCNc1ccc2cc[nH]c2n1`, the “% Inhibition” value is reported as -13% and the Z score is reported as 2.34.
Taken in the same sequence, the figures for `CC(C)CCNC(=O)Nc1ccc(N2CCc3sccc3C2)cc1` were 11% and -2.01.
Take `Cc1ccc2c(c1F)N(C(=O)c1cnc3sc(C)c(C)n3c1=O)CCC2`: the “% Inhibition” value is -4% and the Z score stood at 0.38.
For the compound `CCOC(=O)NCCc1ccc(O)cc1`, the “% Inhibition” value was -5% and the Z score amounted to 0.56.
Taken in the same sequence, the figures for `C#Cc1cncc(C(=O)Nc2ccc(N3C(=O)c4ccccc4C3=O)c(Cl)c2)c1` were 8% and -1.
Consider `Cc1noc(-c2ccc(S(=O)(=O)NCc3ccccn3)o2)c1C`, for which the “% Inhibition” value is given as -7% and the Z score came out at 1.34.
Taken in the same sequence, the figures for `CC(C)c1noc(N2CC[C@H](c3nccn3C)C2)n1` were 30% and -3.38.
Taken in the same sequence, the figures for `CN1CCN(Cc2ccc(C(=O)NC3(c4cc(F)ccc4F)CC3)o2)CC1` were -10% and 1.68.
As for `O=C(NCc1ccncn1)c1ccc(F)c(O)c1`, the “% Inhibition” value turned out to be 1% and the Z score is listed as -0.08.
In the same order, the values of `O=C(NCc1ccccc1Cl)c1n[nH]c2c1CCc1ccccc1-2` are 6% and -0.57.
In the same order, the values of `C[C@@H](C1CC1)N(C(=O)c1n[nH]c2ccccc2c1=O)C1CC1` are 1% and -0.08.
In the same order, the values of `CCOc1ccccc1C(=O)NC[C@]1(O)CCc2ccccc2C1` are -20% and 2.57.
Take `CC(C)N[C@H]1COCC[C@@H]1Oc1ccc(CO)cc1`: the “% Inhibition” value is on record as 6% and the Z score is -1.04.
Taken in the same sequence, the figures for `C[C@@H](Cc1ccsc1)N(C)C(=O)Nc1ccc2cc[nH]c2c1` were -5% and 0.63.
For the compound `Cc1nn(C)c(C)c1CCC(=O)N(C)CCc1noc(C2CC2)n1`, the “% Inhibition” value is recorded as -4% and the Z score turned out to be 0.69.
Taken in the same sequence, the figures for `Cn1nccc1CCn1cc(C#N)cn1` were -15% and 1.23.
In the same order, the values of `Cc1nccn1[C@@H](C)Cc1nc(C2CC2)nn1Cc1c(F)cccc1Cl` are -7% and 1.09.
Taken in the same sequence, the figures for `CCN=C(NCC)NCc1cccc(C)c1` were -1% and 0.09.
In the case of `O=C(c1ccc(-n2c(-c3ccccc3)cc3c2CCCCC3)cc1)N1CCCCCC1`, the “% Inhibition” value worked out at 14% and the Z score is reported as -2.63.
